The target in one assay is T1, human TGFβ1 (human, UniProt P01137 fragment).
T1 construct: also called hTGFβ1; hTGFβ-1
Nature of the assay: binding ELISA, purified scFv. For orientation: An ELISA detects its analyte on a solid surface through an enzyme-linked reagent.

The target in another assay is T2, mouse TGFβ1 (mouse, UniProt P04202 fragment).
T2 construct: also called mTGFβ1; mTGFβ-1
The assay is described as follows: binding ELISA, purified scFv.

Assay [1] addresses T3, mouse serum albumin (mouse, UniProt P07724 25-608).
T3 construct: also called MSA
The assay is described as follows: ELISA, plate coated with MSA; culture medium of HEK293 clones from 24-well plates, concentration not given. The text has this: Figure 5B: Figure 8A: FIG. 8A and FIG. 8B depicts studies assessing the expression level (FIG. 8A) and ability of HEK293 cell-produced IL-15-ABD K86R and K86A variants and IL-15Rα/IL-15-ABD to bind mouse serum albumin (FIG. 8A) and IL-15Rα (FIG. 8B). A) ELISA readout for IL15-ABD binding to mouse serum albumin (MSA) of 12 WT IL15-A10m3 clones (WT), 12 IL-15Rα/IL-15-A10m3 clones (IL15Ra), 6 IL-15 K86A-A10m3 mutant clones (K86A) and 6 IL-15 K86R-A10m3 mutant clones (K86R). Culture medium of each sample well from 24-well plates was added to ELISA plates coated with MSA. B) ELISA for binding of IL-15 to IL-15 receptor alpha (IL-15Rα) which was coated on the plate was used to confirm that K86A (clone A3, yellow star) and K86R (clone R6, green star) mutations had no impact on the binding activity of IL-15 to IL-15Rα. The internal IL-15Rα in IL-15Rα-IL-15-A10m3 (clone alpha1, red star) could bind to internal IL15 and thus block its binding to IL-15Rα coated on the plate. 10 ug/ml of E. coli produced WT IL-15-A10m3 was used as positive control. Figure 8B: Figure 9A: FIG. 9A-FIG. 9C depicts the scaled-up production of IL15K86R-A10m3 clone #6. […]

For assay [2], the target named is T3, mouse serum albumin. The assay is described as follows: Octet (biolayer interferometry), pH 7.2; printed under the table. A general note: Biolayer interferometry detects binding as a change in optical thickness at a sensor tip.
In assay [3] the target is T3, mouse serum albumin. The assay is described as follows: Octet (biolayer interferometry), pH 7.2, table headed 'Octet-hIL15R6-A10m3 B01 MSA pH7.2 1-13-2016'; same value in all three rows (138.9, 69.4 and 34.7 nM); Full R^2 0.986743.

In patent US12006361 (SONNET BIOTHERAPEUTICS, dated 2024) one finds binding result and Kd data, which are given here for three molecules.

Sequence of human TGFβ1 (P01137 279-390 limits assumed): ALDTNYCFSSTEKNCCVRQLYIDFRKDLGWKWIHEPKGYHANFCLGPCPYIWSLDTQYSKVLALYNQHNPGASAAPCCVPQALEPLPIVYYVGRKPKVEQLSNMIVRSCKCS
Sequence of mouse TGFβ1 (P04202 279-390 limits assumed): as the sequence (P01137 279-390 limits assumed) above, with A75S counted along it

B1: 4D9 (scFv)
scFv: [about 100 residues not printed]EISGSYLGLVAFDIWGQGTMVTVSSASTGGGGSGGGGSGGGGSVHSSYVLTQPLSVSVAPGQTARMTCGGDNVGAKSVHWYQQKPGQAPVLLIYYDHDRPSGIPERFSGSNSGNTATLTITRVEAGDEADYYCQVWDPSSDVVFGGGTQLTVLGLGG
notes: also called anti-TGFβ-1 scFv 4D9
B1: the binding result with human TGFβ1 and with mouse TGFβ1 was “binds” in each case.

B2: IL-15 K86A-A10m3 (other)
chain: [about 120 residues with changes not printed]GGGGSGGGGSGGGGSGGGGSGGGGSEVQLVESGGGLIQPGRSLRLSCAASGITFDDAVMHWVRQAPGKGLEWVAGISSNSGYIGYADSVKGRFTISRDNAKNSLYLQMNRLRAEDTAVYYCVKGLYSNPRGGAFDIWGQGTMVTVSSASTGGGGSGGGGSGGGGSVHSSYVLTQPPSVSVAPGQTATITCGGNNIGTKSVHWYQQKPGQAPVLVVYADSDRPSGIPERVSGSNSGNTATLTISRVEAGDEADYYCQVWDSRSDHLWVFGGGTKLTVLG
modifications: Made in HEK293, so probably N-glycosylated; the letters do not carry this.
notes: Produced in HEK293 cells; also called IL-15-ABD K86A; clone A3
As for B2, the binding result in the assay with mouse serum albumin [1] is reported as “binds”.

B3: IL-15 K86R-A10m3 (other)
chain: [about 120 residues with changes not printed]GGGGSGGGGSGGGGSGGGGSGGGGSEVQLVESGGGLIQPGRSLRLSCAASGITFDDAVMHWVRQAPGKGLEWVAGISSNSGYIGYADSVKGRFTISRDNAKNSLYLQMNRLRAEDTAVYYCVKGLYSNPRGGAFDIWGQGTMVTVSSASTGGGGSGGGGSGGGGSVHSSYVLTQPPSVSVAPGQTATITCGGNNIGTKSVHWYQQKPGQAPVLVVYADSDRPSGIPERVSGSNSGNTATLTISRVEAGDEADYYCQVWDSRSDHLWVFGGGTKLTVLG
modifications: Made in HEK293, so N-glycosylated; the letters do not carry this.
notes: Produced in HEK293 cells (glycosylated); also called IL-15-ABD K86R; IL-15R-A10m3
In general, Kd refers to the free concentration of one partner at which half of the binding sites on the other are occupied at equilibrium, for simple one-to-one binding. High values mean a looser complex, low ones a tighter complex. For B3, the Kd with mouse serum albumin [2] and with mouse serum albumin [3] was 28.9 nM throughout.
